Assay results published in article PMC4336329 (PLoS ONE, 2015).
In all, about 310,000 compounds went through this assay and about 14,000 (4.5%) showed an effect of 50% or more. Effects have a minus sign here. This is one part of the list.

target: human ether-à-go-go-related gene (hERG) potassium channel (human, UniProt Q12809); experiment: primary screen, population patch clamp on CHO cells stably expressing hERG
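Note: peak tail current of the secondary pulse compared with the same well before compound.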

human ether-à-go-go-related gene (hERG) potassium channel, sequence (Q12809 whole entry, looked up): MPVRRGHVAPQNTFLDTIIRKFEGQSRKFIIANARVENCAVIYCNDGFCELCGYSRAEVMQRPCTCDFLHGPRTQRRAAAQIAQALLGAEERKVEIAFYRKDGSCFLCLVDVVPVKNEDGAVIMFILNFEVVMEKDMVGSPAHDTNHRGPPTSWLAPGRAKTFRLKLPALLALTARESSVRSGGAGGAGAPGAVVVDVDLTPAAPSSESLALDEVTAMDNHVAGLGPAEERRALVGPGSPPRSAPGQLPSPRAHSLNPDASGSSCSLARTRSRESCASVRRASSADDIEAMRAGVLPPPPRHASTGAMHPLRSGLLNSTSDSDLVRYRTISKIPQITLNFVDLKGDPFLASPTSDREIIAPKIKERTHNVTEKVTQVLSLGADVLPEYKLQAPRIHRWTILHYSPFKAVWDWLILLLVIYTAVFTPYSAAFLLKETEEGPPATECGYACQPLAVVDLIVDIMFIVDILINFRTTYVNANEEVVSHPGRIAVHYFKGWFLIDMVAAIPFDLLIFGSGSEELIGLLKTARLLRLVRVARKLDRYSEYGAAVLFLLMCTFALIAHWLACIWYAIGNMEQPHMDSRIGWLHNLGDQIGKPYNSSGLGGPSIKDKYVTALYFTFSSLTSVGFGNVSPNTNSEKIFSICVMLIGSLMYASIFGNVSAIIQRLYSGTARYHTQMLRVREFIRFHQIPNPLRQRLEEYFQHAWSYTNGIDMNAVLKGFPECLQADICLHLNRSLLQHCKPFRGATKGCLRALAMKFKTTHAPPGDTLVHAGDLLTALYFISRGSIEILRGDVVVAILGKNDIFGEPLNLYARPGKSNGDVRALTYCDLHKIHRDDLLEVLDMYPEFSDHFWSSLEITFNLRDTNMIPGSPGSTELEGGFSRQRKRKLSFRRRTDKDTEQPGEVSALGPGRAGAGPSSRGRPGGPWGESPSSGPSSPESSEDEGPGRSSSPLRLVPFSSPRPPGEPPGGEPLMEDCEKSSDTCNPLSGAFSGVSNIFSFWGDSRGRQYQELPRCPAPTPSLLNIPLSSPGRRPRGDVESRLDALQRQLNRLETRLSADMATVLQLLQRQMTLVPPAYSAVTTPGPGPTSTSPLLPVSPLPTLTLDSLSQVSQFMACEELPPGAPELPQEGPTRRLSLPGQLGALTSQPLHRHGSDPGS

Point of comparison: `CCOC(=O)c1c(C)[nH]c(C(=O)OC(C)C(=O)Nc2ccccc2OC)c1C` (centres unmarked), “hERG current change (%, negative = inhibition) at 10uM” value 2.57%. Against it:
- Cc1ccc(NC(=O)c2c([N+](=O)[O-])c(C(C)(C)C)nn2C)cc1 — lower, -2.47%
- Nc1c(Cl)cc(C2=NCCn3c2c2ccc([N+](=O)[O-])cc2[n+]3[O-])cc1Cl — lower, -54.8%
- Cc1ccccc1CC1CCN(CCCNC(=O)Nc2ccccc2)CC1 — lower, -68.5%
- Brc1ccccc1C1=Nn2c(nnc2-c2ccccc2)SC1 — higher, 14.5%
- COCOc1ccc(C=O)c(O)c1 — higher, 7.21%
- COc1ccccc1CNC(=O)CCn1c(=O)sc2ccccc21 — lower, -5.44%
- Br.Cc1nc2ccc(NC3=NCCCCC3)cc2s1 — higher, 3.35%
- Cc1[nH]n(-c2ccccc2)c(=O)c1/C=N/NC(=O)C(C)C — higher, 21.7%
- CCN(CC)CCn1c2ccc(Cl)cc2c2nc(C)sc21.Cl — lower, -68.2%
- COC(=O)C1=C(c2ccccc2)C[C@@H]2CC[C@H]1N2C(=O)NCCS(C)=O (some centres unmarked) — higher, 21.3%
- Cc1c([N+](=O)[O-])cnc(Sc2ccccc2)c1[N+](=O)[O-] — lower, 2.44%
- Cc1occc1C(=O)Nc1cc(C(F)(F)F)ccc1Cl — higher, 7.62%
- C=CCn1cc(C(=O)OCC)c(=O)c2ccc(F)cc21 — higher, 5.56%
- CN(CCOc1ccccc1)C(=O)c1cc(S(=O)(=O)N2CCCCC2)ccc1Cl — lower, -42.7%
- CC1(C)NC(=O)N(CCOc2cccc(Oc3ccccc3)c2)C1=O — lower, -12.9%
- O=c1c2c(nc3nc(NCc4ccc(Cl)cc4)[nH]n13)CCC2 — higher, 23.2%
- COc1ccc(C2/C(=C(/O)c3ccc4c(c3)CC(C)O4)C(=O)C(=O)N2CCCN2CCOCC2)cc1 (centres unmarked) — higher, 8.55%
- COc1ccccc1C(=O)NC(=O)COC(=O)c1ccc([N+](=O)[O-])cc1 — higher, 7%
- COc1cc(/C=C(\NC(C)=O)C(=O)Nc2cccc(O)c2)ccc1OC(C)=O — lower, -30.8%
- CC(C)CC(NS(=O)(=O)c1cc(C(=O)O)ccc1Cl)C(=O)O (centres unmarked) — higher, 22.8%
- CCn1cc(C(=O)NC2CCCCCC2)c(=O)c2cc(S(=O)(=O)N3CCCCC3)ccc21 — higher, 8.24%
- Cc1ccc(S(=O)(=O)Oc2ccc3ccc(O)cc3c2)cc1 — higher, 7.55%
- Cc1cc(C)cc(C(=O)NCC(=O)OCC(=O)N(C)C2CCS(=O)(=O)C2)c1 (centres unmarked) — higher, 17.7%
- O=C(N/N=C\C=C\c1ccc(Br)cc1)c1ccc2c(c1)OCO2 — higher, 11.7%
- O=C(NNC1=Nc2cc([N+](=O)[O-])ccc2OC1)c1ccccc1Cl — lower, 0.199%
- CSc1ccc(/C=N/NC(=O)CNc2ccc3ccccc3c2)cc1 — higher, 11.2%
- COc1ccc(NC(=O)CSc2c(C)nn(-c3nnc(C)c(=O)[nH]3)c2C)cc1 — higher, 23.6%
- CC(C(=O)N1CCN(c2ccccc2)CC1)c1ccc([N+](=O)[O-])cc1 (centres unmarked) — lower, -42.7%
- Cc1cccnc1NC1(C(F)(F)F)N=C2SCCN2C1=O (centres unmarked) — higher, 16.6%
- COC(=O)[C@H](CCSC)NC(=O)Nc1cccc(Br)c1 — higher, 12.8%
- Cc1c(C(=O)OCc2nc3scc(-c4ccccc4)c3c(=O)[nH]2)cccc1[N+](=O)[O-] — higher, 12.8%
- CCCCN(C)CCCNC(=O)c1cc(-c2cccs2)nc2ccccc12 — lower, -85.6%
- CCOC(=O)C1CCN(C(=O)Cc2c(C(=O)O)n(CC)c3ccccc23)CC1 — higher, 14.3%
- COc1ccc(C(=O)NC2CCSc3ccccc32)cc1F (centres unmarked) — higher, 6.53%
- N#CC1(c2ccccc2)CCCN1C(=O)c1ccccc1Br (centres unmarked) — lower, 1.6%
- CNC(=S)NN(C)c1nc(C)cc(C)n1 — higher, 11.2%
- CCOC(=O)C1(Cc2ccccc2)CCN(CC2CC=CCC2)CC1 (centres unmarked) — lower, -54.9%
- CN(C)/C=C/c1onc(-c2c(F)cccc2Cl)c1C#N — lower, -2.45%
- CC(C)N(Cc1ccccc1)C(=O)CN1C(=O)NC(Cc2ccccc2)(c2ccccc2)C1=O (centres unmarked) — higher, 6.78%
- COc1ccccc1C(=O)N/C(N)=N/c1nc2ccccc2o1 — lower, 1.36%
- CCCNCC1C(Oc2ccc(Cl)cc2)C(=O)N1c1ccccc1C (centres unmarked) — lower, -48.6%
- CCOC(=O)c1cc(-c2csc(Nc3ccccc3Cl)n2)on1 — lower, -1.98%
- CC1CCN(C(=O)CCNC(=O)c2ccccc2)CC1 — higher, 35.7%
- CC(=O)Nc1ccc(S(=O)(=O)NNC(=O)c2ccc([N+](=O)[O-])cc2)cc1 — lower, -0.42%
- CSc1ccc(NC(=O)/C=C/C(=O)O)cc1 — higher, 7.64%
- CCOC(=O)C1CCN(C(=O)c2ccccc2NC(=O)C2=C(C)OCCS2)CC1 — higher, 19.6%
- CN(Cc1ccccc1)C(=O)c1cc2cc(F)ccc2[nH]1 — higher, 13.4%
- CCNC(=O)COC(=O)c1cccc(Br)c1 — higher, 4.94%
- CCOC(=O)[C@H]1[C@H]2COc3ccc(OC)cc3[C@@H]2N2C(=O)CN(Cc3ccc(Cl)cc3)C(=O)[C@@]12C — lower, -12.2%
- CC(=O)NCCC(=O)Nc1ccc(F)cc1C — higher, 11.7%
- O=C(CSc1nnc(-c2ccncc2)n1-c1ccc(Cl)cc1)Nc1ccc(C(=O)O)cc1 — higher, 16.3%
- O=C(CN(Cc1ccco1)C(=O)CCC(=O)Nc1nccs1)NCc1ccccc1 — lower, -3.83%
- c1ccc2c3c(cc(N4CCOCC4)c2c1)OC1(N2CCOCC2)CCCCC1O3 (centres unmarked) — lower, -4.18%
- COc1cccc(NC(=O)COC(=O)COc2cccc3c2OC(C)(C)C3)c1 — lower, -35.8%
- Cc1cc(C)c2sc(N(CCN(C)C)C(=O)c3ccc4ccccc4c3)nc2c1.Cl — higher, 7.53%
- C/C(=N\NC(=O)c1ccc2c(c1)OCO2)c1cccnc1 — higher, 15.2%
- O=C(NCCSc1ccccc1)c1ccccc1 — higher, 6.11%
- O=C1NC(=O)N(Cc2ccco2)C(=O)/C1=C/c1ccc(-c2cccc([N+](=O)[O-])c2)o1 — lower, -7.69%
- CCOC(=O)C1(Cc2ccc(OC)cc2)CCN(C(=O)c2sc(C)nc2C)CC1 — lower, 1.86%
- COc1ccc(Cl)cc1N1C(=O)c2cccnc2C1=O — higher, 18.6%
- CCOc1ccc(C(=O)c2ccncc2)cc1 — higher, 9.82%
- CC1CC(C(=O)Nc2ccccc2)C(=O)O1 (centres unmarked) — higher, 17.8%
- O=c1nc(-c2ccccc2)cn[nH]1 — lower, -0.662%
- COc1ccc(CC(=O)N(CCC2=CCCCC2)c2c(N)n(Cc3ccccc3)c(=O)[nH]c2=O)cc1OC — lower, -29%
- CC1=C(C(=O)OCc2ccccc2)C(c2cccc3ccccc23)NC(=O)N1CCCC(=O)O (centres unmarked) — higher, 20.8%
- COc1ccc(CCNC(=O)CCN2C(=O)[C@@H]3Cc4ccccc4CN3C2=O)cc1OC — higher, 3.08%
- CCOCCCNC(=O)C(NC(=O)CC1NC(=O)NC1=O)c1ccc(Cl)cc1 (centres unmarked) — higher, 8.3%
- CCCn1c(CCNC(=O)c2cccs2)nc2ccccc21 — lower, -36.1%
- O=C(NCc1cccs1)c1cccn2c(=O)c3sccc3nc12 — lower, -7.79%
- Cc1cc(C)n2nc(C(=O)NCc3ccccc3)nc2n1 — lower, -1.29%
- COc1cc(C)ccc1OCc1cc(C(=O)NCCN2CCCC(O)C2)no1 (centres unmarked) — lower, -6.69%
- O=C(Cc1coc2cc3c(cc12)CCC3)OCc1cc(=O)n2c(n1)sc1ccccc12 — higher, 4.53%
- CCCCN(Cc1nc2ccccc2c(=O)[nH]1)C(=O)CN1C(=O)NC2(CCCCC2)C1=O — lower, -41.9%
- CC1=C(C(=O)Nc2ccccc2C)C2(CCCCC2)C(C(N)=O)C(=S)N1 (centres unmarked) — lower, -6.7%
- Cc1[nH]nc2c1C(c1ccc(Cl)cc1)C(C#N)=C(N)O2 (centres unmarked) — higher, 5.06%
- N#Cc1c(NC(=O)c2cc(C3CC3)on2)sc2c1CCC2 — higher, 13.8%
- CCC1CCCCN1CCCNC(=O)CN1C(=O)c2cccnc2Oc2ccc(Cl)cc21 (centres unmarked) — lower, -3.74%
- CC(=O)N1CCc2ccc(S(=O)(=O)Nc3ccccc3Cl)cc21 — lower, -3.03%
- Cn1c(NC(=O)c2cccc(Cn3cc(Cl)cn3)c2)nc2ccccc21 — higher, 6.57%
- Cc1cc(C)nc(N/N=C/C2=C(O)CC(c3ccc(F)cc3)CC2=O)n1 (centres unmarked) — lower, -13.7%
- CC(CC(=O)O)CC(=O)Nc1ccc(Br)cc1 (centres unmarked) — higher, 16.9%
- C=CCOc1ccccc1CNCCNC(=O)c1nonc1N.Cl — lower, -22.8%
- OC1(CN2CCOCC2)C2CN3CCN(C2)CC1(c1ccccc1)C3 (centres unmarked) — lower, -0.418%
- CCCOc1ccccc1/C=N/Nc1ccnc(=O)[nH]1 — higher, 17%
- COc1ccccc1/C=C/C(=O)NCCc1ccccn1 — higher, 21.6%
- CC(=O)NC1(C(F)(F)F)C(=O)Nc2c1c(=O)[nH]c(=O)n2CC(C)C (centres unmarked) — higher, 19.8%
- Cc1cccn2c(=O)c3cc(C(=O)N4CCC5(CC4)OCCO5)n(C)c3nc12 — lower, -16.7%
- Cc1ccc(C(=O)O)cc1-n1c(=O)n(Cc2ccccc2)c(=O)c2[nH]cnc21 — higher, 15%
